From the supplement of paper PMC4996465

Assays:
KB3-1 [1] = assay: viability (% of DMSO control); higher = more viable cells
Description: (§1)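 Eleven-dose screen of the NCATS MIPE 3 library on cells without co-treatment; CellTiter-Glo after 48 h, as % of DMSO wells.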

Nalm-6 [2] = assay: as above
Description: as §1

KB3-1 [3] = assay: log AC50 of viability decrease (48 h) (log10 M); higher = less potent
Description: (§2)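 Eleven-dose screen of the NCATS MIPE 3 library on cells without co-treatment; CellTiter-Glo after 48 h. AC50 from the curve fit; only inhibitory curves of the better fit classes are listed.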

Nalm-6 [4] = assay: as above
Description: as §2

Row | SMILES | viability (KB3-1 [1]; 0.00078 µM) | viability (KB3-1 [1]; 0.00234 µM) | viability (KB3-1 [1]; 0.00702 µM) | viability (KB3-1 [1]; 0.0211 µM) | viability (KB3-1 [1]; 0.0632 µM) | viability (KB3-1 [1]; 0.19 µM) | viability (KB3-1 [1]; 0.569 µM) | viability (KB3-1 [1]; 1.71 µM) | viability (KB3-1 [1]; 5.12 µM) | viability (KB3-1 [1]; 15.4 µM) | viability (KB3-1 [1]; 46.1 µM) | viability (Nalm-6 [2]; run: 1, 0.00078 µM) | viability (Nalm-6 [2]; run: 1, 0.00234 µM) | viability (Nalm-6 [2]; run: 1, 0.00702 µM) | viability (Nalm-6 [2]; run: 1, 0.0211 µM) | viability (Nalm-6 [2]; run: 1, 0.0632 µM) | viability (Nalm-6 [2]; run: 1, 0.19 µM) | viability (Nalm-6 [2]; run: 1, 0.569 µM) | viability (Nalm-6 [2]; run: 1, 1.71 µM) | viability (Nalm-6 [2]; run: 1, 5.12 µM) | viability (Nalm-6 [2]; run: 1, 15.4 µM) | viability (Nalm-6 [2]; run: 1, 46.1 µM) | viability (Nalm-6 [2]; run: 2, 0.00078 µM) | viability (Nalm-6 [2]; run: 2, 0.00234 µM) | viability (Nalm-6 [2]; run: 2, 0.00702 µM) | viability (Nalm-6 [2]; run: 2, 0.0211 µM) | viability (Nalm-6 [2]; run: 2, 0.0632 µM) | viability (Nalm-6 [2]; run: 2, 0.19 µM) | viability (Nalm-6 [2]; run: 2, 0.569 µM) | viability (Nalm-6 [2]; run: 2, 1.71 µM) | viability (Nalm-6 [2]; run: 2, 5.12 µM) | viability (Nalm-6 [2]; run: 2, 15.4 µM) | viability (Nalm-6 [2]; run: 2, 46.1 µM) | log AC50 of viability decrease (KB3-1 [3]) | log AC50 of viability decrease (Nalm-6 [4]; run: 1) | log AC50 of viability decrease (Nalm-6 [4]; run: 2)
1 | O=C1\C=C(OC2=C(C=CC=C12)C3=CC=CC4=C3SC5=C4C=CC=C5)\N6CCOCC6 [NU-7441] | 100% | 98.8% | 94.4% | 98% | 94.5% | 94.1% | 97.6% | 90.8% | 86.8% | 73.9% | 4.36% | 100% | 103% | 113% | 105% | 102% | 115% | 102% | 90.7% | 76.8% | 46.6% | -0.43% | 110% | 112% | 107% | 114% | 111% | 114% | 118% | 109% | 100% | 58.9% | 0.611% | -4.53 | -4.78 | -4.78
2 | CCNC(=O)c1noc(-c2cc(C(C)C)c(O)cc2O)c1-c1ccc(CN2CCOCC2)cc1 [NVP-AUY922] | 105% | 81.9% | 53.3% | 65.4% | 67% | 63.8% | 62.2% | 66.4% | 64.5% | 70% | 51.1% | 38.9% | 21.9% | 18.3% | 19.2% | 17.7% | 24.9% | 11.8% | 17% | 22.4% | 16.1% | 10.4% | 48.9% | 22% | 21.1% | 18.7% | 16.9% | 22.8% | 11.8% | 18.9% | 19.5% | 22.1% | 10.6% | -8.68 | – | -8.83
3 | Cc1c(C(=O)Nc2ccc(N3C[C@@H](C)O[C@@H](C)C3)nc2)cccc1-c1ccc(OC(F)(F)F)cc1 [NVP-LDE-225] | 100% | 96.7% | 101% | 98.1% | 93.7% | 91.3% | 87.5% | 81.9% | 85.8% | 81.5% | 54.3% | 89.3% | 89.1% | 102% | 95.9% | 97.3% | 101% | 99% | 82.1% | 68.2% | 66.5% | 8.41% | 100% | 110% | 100% | 99.6% | 94.1% | 93% | 90.4% | 87.4% | 85.7% | 69.6% | 15% | -4.63 | -4.73 | -4.68
4 | CCOc1cc2ncc(C#N)c(Nc3ccc(OCc4ccccn4)c(Cl)c3)c2cc1NC(=O)/C=C/CN(C)C [Neratinib] | 106% | 111% | 106% | 106% | 101% | 101% | 93.7% | 72.6% | 68.5% | 65.1% | 57.9% | 111% | 115% | 114% | 125% | 112% | 120% | 111% | 87.7% | 59.4% | 1.99% | -0.315% | 110% | 111% | 108% | 110% | 106% | 102% | 101% | 82.5% | 49.1% | 13.7% | 0.28% | -6.03 | -5.28 | -5.33
5 | COc1cccc2cc(-c3nc(C4CCC(C(=O)O)CC4)n4ncnc(N)c34)[nH]c12 (configuration not stated) [OSI-027] | 105% | 102% | 99.9% | 94.4% | 90.1% | 73.4% | 60.9% | 49.2% | 44.8% | 42.5% | 40.8% | 108% | 103% | 101% | 102% | 91.5% | 83.7% | 70.3% | 56.1% | 53.1% | 41.6% | 14.7% | 109% | 101% | 106% | 106% | 102% | 96% | 77% | 67.7% | 67.9% | 50.1% | 13.1% | -6.63 | -5.28 | -5.18
6 | O=C(Nc1ccc(OC(F)(F)F)cc1)c1sccc1NCc1ccnc2ccccc12 [OSI-930] | 103% | 106% | 107% | 108% | 110% | 108% | 108% | 105% | 100% | 95.4% | 72% | 126% | 118% | 122% | 119% | 117% | 111% | 101% | 109% | 89.7% | 64.2% | 10.2% | 109% | 114% | 106% | 111% | 112% | 104% | 99.8% | 95.9% | 94.7% | 70.2% | 1.96% | -4.73 | -4.68 | -4.73
7 | COC1=CC(c2cc3ccccc3[nH]2)=N/C1=C/c1[nH]c(C)cc1C [Obatoclax] | 98.3% | 94.5% | 107% | 100% | 93.5% | 92.8% | 65.1% | 64.6% | 57.1% | 41.3% | 9.52% | 119% | 107% | 117% | 109% | 93% | 65.1% | 13.4% | 8.48% | 8.73% | 4.57% | 1.59% | 97% | 101% | 108% | 99.6% | 88.5% | 54% | 10.7% | 9.28% | 6.64% | 4.05% | 1.14% | -5.18 | -6.73 | -6.73
8 | CC(=O)N(C)C1(c2ccccc2)CCN(CCC[C@]2(c3ccc(Cl)c(Cl)c3)CCCN(C(=O)c3ccccc3)C2)CC1 [Osanetant] | 98.7% | 101% | 102% | 96.5% | 98.2% | 99.4% | 95.4% | 93.5% | 104% | 66.1% | 0.611% | 82.5% | 87.9% | 91.7% | 103% | 96.5% | 95.4% | 99% | 96.6% | 86.4% | 40.1% | 0.713% | 98% | 96.7% | 99.4% | 100% | 97.3% | 95.1% | 99% | 103% | 95.2% | 34.9% | 0.95% | -4.73 | -4.83 | -4.88
9 | C=CCc1cccc(/C=N/NC(=O)CN2CCN(Cc3ccccc3)CC2)c1O [PAC-1] | 105% | 105% | 108% | 105% | 105% | 106% | 109% | 99.6% | 89.2% | 74.3% | 57.2% | 120% | 113% | 110% | 114% | 118% | 109% | 110% | 70.3% | 56.6% | 31% | 4.5% | 106% | 112% | 114% | 112% | 110% | 109% | 95.8% | 65.8% | 47.3% | 32.6% | 2.08% | -4.88 | -5.23 | -5.33
10 | COc1cccc2c1CCCC2CCCN1CCN(C2CCCCC2)CC1 (configuration not stated) [PB-28] | 109% | 104% | 109% | 110% | 106% | 99.8% | 105% | 94.1% | 93.4% | 74% | 69.1% | 118% | 114% | 119% | 122% | 116% | 116% | 116% | 99.9% | 84.4% | 60.4% | 8.97% | 103% | 106% | 105% | 106% | 102% | 93.3% | 102% | 97.7% | 73.3% | 49.8% | 1.02% | -5.13 | -4.78 | -4.78
11 | C[C@]1(CO)CN(c2cc(C(=O)Nc3ccc4c(c3)-c3c(c(C(N)=O)nn3-c3ccc(F)cc3)CC4)c(Cl)cn2)C[C@@]1(C)CO [PF-184] | 98.5% | 97.1% | 96% | 98.3% | 97.1% | 96.7% | 90.7% | 94.6% | 81.9% | 72.3% | 54.9% | 87.8% | 91% | 100% | 97% | 97.6% | 101% | 99.3% | 86.3% | 13.3% | 5.02% | 8.4% | 103% | 106% | 108% | 97.5% | 98.3% | 113% | 101% | 100% | 14.4% | 2.91% | 5.25% | -4.78 | -5.58 | -5.48
12 | O=C(Nc1cccnc1)N1CCC(Cc2cccc(Oc3ccc(C(F)(F)F)cn3)c2)CC1 [PF-3845] | 93.2% | 98.1% | 100% | 102% | 101% | 107% | 99.7% | 101% | 84.8% | 71.8% | 64.4% | 82.5% | 105% | 104% | 94% | 105% | 110% | 108% | 102% | 77.8% | 58.5% | 7.17% | 107% | 99.4% | 96.4% | 96.5% | 99.5% | 105% | 101% | 97.7% | 86.8% | 47.8% | 5.36% | -5.18 | -4.78 | -4.78
13 | COC1=CC=C2/C3=N/CCN3\C(=N/C2=C1OC)NC(=O)C4=CC=CN=C4 [PIK-90] | 107% | 108% | 105% | 101% | 107% | 97.8% | 92.8% | 89.4% | 76.9% | 84.4% | 66.8% | 115% | 119% | 115% | 109% | 111% | 97.6% | 86.3% | 73.5% | 64.2% | 49.6% | 42.3% | 96.2% | 103% | 104% | 99.9% | 99.4% | 98.8% | 94.8% | 80.1% | 76.5% | 62.9% | 43.5% | -5.43 | -5.83 | -4.93

Viability of KB3-1 and Nalm-6 cells after 48 h of drug alone (CellTiter-Glo), 11 doses over about 4.5 log units. % of DMSO wells, lower = more cell loss; AC50 from the fitted curve, lower = more potent. No active / inactive call. Nalm-6 was screened in two runs. AC50 is listed only for well-fitted inhibitory curves. KB3-1 is a HeLa-derived carcinoma line, Nalm-6 a B-cell precursor leukaemia line.
